Drawing on PubChem BioAssay AID463173 (ICCB-Longwood Screening Facility, Harvard Medical School, 2010), this text covers survival for 87 compounds.

Among all 52,000 compounds or so, about 4,300 (8.3%) were called active. Cut-off read from the data, not from the text of the source: active = survival mostly below about 52% (no sharp cut-off); inactive = mostly above about 56%. Some of the results follow.

In the experiment the test system is DeltatarO mutant. Put plainly: S. aureus survival, RN4220 and DeltatarO strains – OD600, teichoic acid synthesis inhibitors, primary screen (AID 463173). As to conditions: S. aureus RN4220 wild type/DeltatarO growth, OD600, 18 h, hits give low values, screened at 18.75 µg/mL (by protocol).
Regarding `Cc1ccccc1CN1CCC(CNc2ncnc3onc(-c4ccc(F)cc4)c23)CC1`, the survival was inactive: 109%.

With `COc1cc(NC(=O)NC(C)c2c(-n3cccc3)sc3c2CCCC3)cc(OC)c1OC` (configuration not stated), the survival was inactive: 57%.

In the case of `CCCCN(CC)CCNC(=O)c1cn(C)c(=O)c2c1c1ccccc1n2C`, the survival was inactive: 65%.

On to `CCc1cccc(-n2nnc(-c3nsc(NC(=O)c4cccs4)n3)c2C)c1`, for which the survival was active: -5%.

`CC(=O)Nc1ccc2nc(-c3cc(C)ccc3C)[nH]c2c1`: the survival was inactive: 118%.

Consider `Cc1cc(N2CCC(C(N)=O)CC2)nc(-c2ccccc2)n1`, for which the survival was inactive: 96%.

Turning to `Cc1ccc(Cl)cc1NC(=O)Cn1c(=O)n(CCC(=O)NCc2ccc3c(c2)OCO3)c(=O)c2sccc21`, the survival was active: 79%.

With `CCCC(=O)Nc1nnc(S(=O)(=O)N2CCCCCC2)s1`, the survival is inactive: 91%.

Regarding `COc1ccc(C2C(C(=O)Nc3ccccc3)=C(C)Nc3nc(SCC(=O)c4ccc(C)cc4)nn32)cc1` (configuration not stated), the survival is inactive: 71%.

Regarding `CC1=C(c2ccc(F)cc2)S(=O)(=O)N=C1N1CCC(C(=O)NCCc2ccccc2C)CC1`, the survival is inactive: 85%.

As to `CC(C)Cc1ccc(S(=O)(=O)N2CCN(Cc3noc(CCC(=O)N4CCCCC4)n3)CC2)cc1`, the survival is inactive: 101%.

Take `O=C(NCc1ccc(Cl)cc1)c1ccc(CN2CCOCC2)cc1`: the survival was inactive: 73%.

For the compound `Cc1ccc2[nH]c(-c3ccccc3)c(CN(C)C)c(=O)c2c1`, the survival was inactive: 98%.

As for `CCOC(=O)c1cn(CC(=O)Nc2ccc(OC)cc2OC)nn1`, the survival is inactive: 83%.

Regarding `Fc1ccc(Nc2ncnc3onc(-c4ccc(Cl)cc4)c23)cc1Cl`, the survival is inactive: 72%.

Consider `CCOc1ccc(CCNC(=O)c2ccc3c(c2)N(Cc2ccc(C)cc2)CCS3)cc1`, for which the survival was inactive: 78%.

Take `O=C(C1CCCN(S(=O)(=O)c2ccc(Br)s2)C1)N1CCN(c2ccccc2F)CC1` (configuration not stated): the survival is inactive: 77%.

Regarding `CCN(CC)CCCNc1sc(S(=O)(=O)c2ccccc2)nc1S(=O)(=O)c1ccc(Cl)cc1`, the survival is inactive: 75%.

In the case of `CCOC(=O)c1c(C)[nH]c(CCC(=O)NC(C)c2ccccc2)c1C` (configuration not stated), the survival was inactive: 94%.

Regarding `COc1ccc(C)cc1NC(=O)NC(C)c1c(-n2cccc2)sc(C)c1C` (configuration not stated), the survival was inactive: 44%.

Take `CCN(C(=O)c1sc2nc3n(c(=O)c2c1C)CCCCC3)c1ccc(OC)cc1`: the survival is inactive: 58%.

In the case of `COc1cc(OC)c(NC(=O)Nc2cccc(OCc3cc(=O)n4ccccc4n3)c2)cc1Cl`, the survival is inactive: 66%.

In the case of `Cc1cccc(C)c1NCc1nnc(SCC#N)n1-c1ccccc1`, the survival is inactive: 92%.

As to `Cc1ccc2[nH]c(=O)c(CN(Cc3ccccc3)C(=O)c3ccco3)cc2c1`, the survival is inactive: 103%.

For the compound `COc1ccc(-n2cc(-c3ccccc3)c3c(Nc4ccc(OC)c(OC)c4)ncnc32)cc1`, the survival is inactive: 100%.

Regarding `CCOc1cc2c(cc1OCC)C(CC(=O)O)N(C(=O)Nc1ccccc1C(F)(F)F)CC2` (configuration not stated), the survival was inactive: 67%.

As for `Cc1cc(C)nc(-n2nc(C)c3c2NC(=O)CC3c2cccc(O)c2)n1` (configuration not stated), the survival is inactive: 72%.

As for `Cc1cc2nn(-c3ccc(F)cc3)nc2cc1NC(=O)c1cccc2c(Cl)cccc12`, the survival is inactive: 59%.

Turning to `C#CCn1c(O)c(N=NC(=O)c2ccccc2-n2cccc2)c2ccccc21`, the survival was inactive: 60%.

As to `O=C(O)C1C2C=CC(C2)C1C(=O)NC1CCN(Cc2ccccc2)CC1` (configuration not stated), the survival is inactive: 76%.

Turning to `CC1(c2ccccc2)CC(C)(C)N(C(=O)c2cccc(Cl)c2)c2ccccc21` (configuration not stated), the survival was active: 8%.

Consider `Cc1cccc(N2C(=O)NC(=O)/C(=C\c3cn(CC(=O)NCc4ccco4)c4ccccc34)C2=O)c1`, for which the survival was inactive: 97%.

Regarding `c1ccc2c(c1)COC(CCN1CCN(CCC3OCc4ccccc4CO3)CC1)OC2`, the survival is inactive: 85%.

As for `COc1ccccc1NC(=O)c1ccc(CN2C(=O)C(C)=C(c3ccc(C)c(C)c3)S2(=O)=O)cc1`, the survival is inactive: 83%.

With `Cc1noc(-c2ccc(NC(C)c3ccccc3)c([N+](=O)[O-])c2)n1` (configuration not stated), the survival is inactive: 70%.

Consider `CCOC(=O)CC(=O)CSc1nc2ccsc2c(=O)n1Cc1ccccc1`, for which the survival was inactive: 118%.

In the case of `CCC(=O)N1CCc2cc(Br)cc(S(=O)(=O)N3CCN(c4ccccc4OC)CC3)c21`, the survival is inactive: 56%.

For the compound `Cc1ccc(CNC(=O)c2nc(SCc3ccccc3C)ncc2Cl)cc1`, the survival was inactive: 76%.

In the case of `Cc1nc2ccn(Cc3cccs3)c(=O)c2cc1C(=O)N1CCN(c2ccccc2F)CC1`, the survival was inactive: 55%.

For the compound `Cc1ccc(NS(=O)(=O)c2ccc3[nH]c4c(c3c2)CCCC4)cc1N(C)C`, the survival was inactive: 70%.

For `CC1S/C(=N\NC(=O)CNc2cccc(Cl)c2)N(c2ccccc2)C1=O` (configuration not stated), the survival was inactive: 82%.

`COc1cccc(NC(=O)c2ccc3c(c2)CCN3S(C)(=O)=O)c1`: the survival is inactive: 84%.

For the compound `CC1CCN(S(=O)(=O)c2ccc3c(c2)N(CC(=O)NCCc2ccccc2)C(=O)CO3)CC1`, the survival was inactive: 93%.

Turning to `Cc1ccc(CNC(=O)c2ccc(CSCc3cccc(C)c3)o2)cc1`, the survival is inactive: 93%.

Take `Cc1cc(C)cc(-n2c(SCC(=O)N3CCOCC3)nc3c([nH]c4ccccc43)c2=O)c1`: the survival was inactive: 128%.

Regarding `Cc1ccc(C)c(OCCn2c(CCNC(=O)C3CCCCC3)nc3ccccc32)c1`, the survival is inactive: 59%.

As to `COc1cccc(-c2nnc(-c3ccccc3NC(=O)c3ccc(F)cc3F)o2)c1`, the survival was inactive: 78%.

Consider `CNC(=O)C1CCC(Cn2c(=O)c3sccc3n(CC(=O)Nc3ccc(C)c(F)c3)c2=O)CC1` (configuration not stated), for which the survival was inactive: 80%.

For the compound `COc1ccc(C)cc1NC(=O)C1CCCN(S(=O)(=O)c2ccc3[nH]c(=O)ccc3c2)C1` (configuration not stated), the survival is inactive: 77%.

Regarding `O=C(COc1ccc2ccccc2c1)Nc1ccc(NC(=O)c2ccco2)cc1`, the survival is inactive: 86%.

Take `COc1cc(NC(=O)CN2C(=O)CN(C)C(=O)c3ccccc32)cc(OC)c1OC`: the survival is inactive: 120%.

Take `CCOc1cc2[nH]c(=O)n(CCCC(=O)N3CCN(c4ccc(OC)cc4)CC3)c(=O)c2cc1OCC`: the survival is inactive: 68%.

Regarding `CCOC(=O)c1c(C)[nH]c(C)c1S(=O)(=O)N1CCC(C(=O)Nc2ccc(C)cn2)CC1`, the survival was inactive: 72%.

Turning to `CCOc1ccc(CCNC(=O)Cn2ncc3c(=O)oc4ccc(C)cc4c32)cc1`, the survival is inactive: 79%.

In the case of `CCn1c2ccccc2c2cc(NC(=O)COc3cccc(C)c3)ccc21`, the survival is active: 27%.

Consider `CCOc1ccc(N(CC(=O)NCc2ccc(C)cc2)S(=O)(=O)c2c(C)noc2C)cc1`, for which the survival was inactive: 92%.

In the case of `O=C(c1ccc(CSc2nc3ccncc3n2Cc2cccc(F)c2)cc1)N1CCCCC1`, the survival is inactive: 73%.

Turning to `CC1=C(c2ccc(C(C)C)cc2)S(=O)(=O)NC1=NCc1ccccc1Br`, the survival is inactive: 75%.

For the compound `Cc1cccc(NC(=O)Cn2c(=O)nc(-c3ccccc3)c3ccccc32)c1C`, the survival was inactive: 95%.

For `O=C(NCc1ccco1)C(c1ccco1)N(C(=O)Cn1nnc2ccccc21)c1ccccc1` (configuration not stated), the survival was inactive: 65%.

On to `O=C(/C=C/c1ccco1)ON1C(=O)c2ccccc2C1=O`, for which the survival was inactive: 91%.

Regarding `CCOc1ccc(CCNC(=O)c2cn(CC)c3ccc(S(=O)(=O)N4CCCCCC4)cc3c2=O)cc1OCC`, the survival was inactive: 71%.

Take `CC(=O)N1CCCc2cc(S(=O)(=O)N(C)CC(=O)Nc3cccc(C)c3C)ccc21`: the survival was inactive: 67%.

In the case of `O=C1c2[nH]nc(-c3ccccc3O)c2C(c2cccc(Cl)c2)N1Cc1cccnc1` (configuration not stated), the survival was inactive: 65%.

On to `O=C(N/N=C/C=C/c1ccco1)c1ccccc1F`, for which the survival was inactive: 96%.

As for `O=C(NCCN1CCN(c2cccc(Cl)c2)CC1)C1COc2ccccc2C1` (configuration not stated), the survival is inactive: 95%.

`Cc1cccc(CNC(=O)Cn2ccc3cc(S(=O)(=O)N4CCCC4)ccc32)c1`: the survival is inactive: 73%.

Regarding `CCCCN1CC(c2nc3ccccc3n2CCCCOc2ccc(C)c(C)c2)CC1=O` (configuration not stated), the survival is active: 20%.

`Cc1ccc(F)c(NC(=O)Nc2ccc3snnc3c2)c1`: the survival is inactive: 97%.

`CC(C)C(c1nnnn1CCc1ccccc1)N(Cc1ccco1)Cc1ccccc1Cl` (configuration not stated): the survival was inactive: 56%.

In the case of `Cn1cc(C(=O)NCc2ccccc2)c(=O)c2cc(S(=O)(=O)N3CCOCC3)ccc21`, the survival was inactive: 91%.

In the case of `Cc1cccc(NC(=O)Cn2nnc(C(=O)Nc3ccccc3Br)c2N)c1C`, the survival was active: 8%.

With `COc1cccc(-c2nc(CS(=O)(=O)CC(=O)Nc3c(C)cc(C)cc3C)c(C)o2)c1`, the survival was inactive: 68%.

On to `COc1cccc(N2CCN(C(=O)C3CCN(S(=O)(=O)c4c(C)noc4C)CC3)CC2)c1`, for which the survival is inactive: 96%.

On to `O=C(NC1CC(=O)N(c2ccc(Cl)cc2)C1)c1ccc2c(c1)OCO2` (configuration not stated), for which the survival is inactive: 78%.

For `CCOC(=O)c1cc(-c2ccc(C)cc2)n(CCC(=O)Nc2ccc(C(C)C)cc2)c1C`, the survival was inactive: 61%.

In the case of `CN(C)S(=O)(=O)c1ccc(C(=O)NC2CC(=O)N(c3ccc4c(c3)OCCO4)C2)cc1` (configuration not stated), the survival is inactive: 74%.

In the case of `C[n+]1ccn(CC(=O)c2ccccc2)c1`, the survival is inactive: 78%.

Consider `COc1cc(C2C(C(=O)Nc3ccc(C)cc3C)=C(C)Nc3nc4ccccc4n32)cc(OC)c1OC` (configuration not stated), for which the survival was inactive: 55%.

As for `Cc1cccc(NC(=O)CS(=O)(=O)c2nc(-c3ccccc3)cn2-c2cccc(Cl)c2)c1C`, the survival is inactive: 63%.

As to `CCc1cccc(C)c1NC(=O)CSc1nc2ccccc2nc1N1CCOCC1`, the survival was inactive: 81%.

As to `CC1(C)O[C@H]2[C@@H](O1)[C@@H](C(=O)Nc1ccc(F)c(F)c1)O[C@@H]1OC(C)(C)O[C@@H]12`, the survival was inactive: 103%.

On to `Cc1cc(F)ccc1NS(=O)(=O)c1c(C)nc2scc(C)n2c1=O`, for which the survival is inactive: 74%.

On to `CSc1ccc(CCNC(=O)CN2C(=O)c3cccnc3Oc3ccc(C)cc32)cc1`, for which the survival is inactive: 77%.

For `COc1cccc(C(O)C(F)(F)F)c1` (configuration not stated), the survival was inactive: 101%.

As for `Cc1cc(NC(=O)N(C)CCc2c(C)nn(C)c2C)ccc1Br`, the survival was inactive: 89%.

Take `CCCN1CCN(CCCNC(=O)Cn2nc(CC)n3c(cc4occc43)c2=O)CC1`: the survival was inactive: 128%.
